Nine molecules from PMC9911399, “Two distinct binding modes provide the RNA-binding protein RbFox with extraordinary sequence specificity” can be followed below.

Substitutions are numbered along the chain they refer to; changes in the protein carry UniProt numbers. This is one part of the list.

The chains are these.
T1: RBFOX1 RRM (Homo sapiens, UniProt Q9NWB1 109-208)
T1 sequence: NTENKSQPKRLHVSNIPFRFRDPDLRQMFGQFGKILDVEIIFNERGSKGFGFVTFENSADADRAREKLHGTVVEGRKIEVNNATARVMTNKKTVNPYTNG

B1: UCCUGGG (DNA:RNA)
RNA: GGGAGACCGGAAUUCAGAUUGUCCUCCUGGGUUAAAUCCCGUCGUAGCCACCA
DNA 1: CAATCTGAATTCCGGTCTCCC
DNA 2: TGGTGGCTACGACGGGATT
B2: UCACAUU (DNA:RNA)
RNA: B1 RNA with C27A, U28C, G29A, G30U, G31U
DNA 1: CAATCTGAATTCCGGTCTCCC
DNA 2: TGGTGGCTACGACGGGATT
B3: CCACAGA (DNA:RNA)
RNA: B1 RNA with U25C, C27A, U28C, G29A, G31A
DNA 1: CAATCTGAATTCCGGTCTCCC
DNA 2: TGGTGGCTACGACGGGATT
B4: UCAUGAC (DNA:RNA)
RNA: B1 RNA with C27A, G30A, G31C
DNA 1: CAATCTGAATTCCGGTCTCCC
DNA 2: TGGTGGCTACGACGGGATT
B5: GGGGAAG (DNA:RNA)
RNA: B1 RNA with U25G, C26G, C27G, U28G, G29A, G30A
DNA 1: CAATCTGAATTCCGGTCTCCC
DNA 2: TGGTGGCTACGACGGGATT
B6: GUCAUGA (DNA:RNA)
RNA: B1 RNA with U25G, C26U, U28A, G29U, G31A
DNA 1: CAATCTGAATTCCGGTCTCCC
DNA 2: TGGTGGCTACGACGGGATT
B7: AUCGACG (DNA:RNA)
RNA: B1 RNA with U25A, C26U, U28G, G29A, G30C
DNA 1: CAATCTGAATTCCGGTCTCCC
DNA 2: TGGTGGCTACGACGGGATT
B8: UUACCGC (DNA:RNA)
RNA: B1 RNA with C26U, C27A, U28C, G29C, G31C
DNA 1: CAATCTGAATTCCGGTCTCCC
DNA 2: TGGTGGCTACGACGGGATT
B9: GAGAGAC (DNA:RNA)
RNA: B1 RNA with U25G, C26A, C27G, U28A, G30A, G31C
DNA 1: CAATCTGAATTCCGGTCTCCC
DNA 2: TGGTGGCTACGACGGGATT

The assay has as its target T1, RBFOX1 RRM. The experiment in a line: EMSA; HiTS-Eq, 1 nM pool, 10 min; buffer printed only for the single-RNA assays: 10 mM Tris pH 7.5, 150 mM NaCl, 3.4 mM EDTA, 0.001% NP-40, 30 C. The settings on record: tags: His6 N-terminal (pET28a); label: 5' 32P. Summed up: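 Purified RbFox RRM, wild type or mutant, was incubated for 10 min in 50 µL with 1 nM of a 5′-radiolabelled RNA pool carrying 7 randomized nucleotides, whose flanks were annealed to DNA oligonucleotides, over a series of increasing protein concentrations. Unbound RNA was resolved on 8% native PAGE, cut out, reverse-transcribed, barcoded by PCR and sequenced on an Illumina HiSeq 2500. Relative association constants were derived from changes in read counts for each RNA species versus the control reaction and normalised to the cognate motif.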
A general note: Mobility shift assays separate free from complexed probe on a gel.
Regarding B1, the binding signal was 0.00619 KA relative to UGCAUGU.

Consider B2, for which the binding signal is 0.00269 KA relative to UGCAUGU.

For the molecule B3, the binding signal was 0.00978 KA relative to UGCAUGU.

As to B4, the binding signal is 0.00702 KA relative to UGCAUGU.

For the molecule B5, the binding signal was 0.0311 KA relative to UGCAUGU.

For the molecule B6, the binding signal is 0.0126 KA relative to UGCAUGU.

In the case of B7, the binding signal is 0.00839 KA relative to UGCAUGU.

As to B8, the binding signal is 0.00979 KA relative to UGCAUGU.

B9: the binding signal was 0.00496 KA relative to UGCAUGU.
